The text below walks through data of ChEMBL document CHEMBL4888484, “Replenishing the malaria drug discovery pipeline: Screening and hit evaluation of the MMV Hit Generation Library 1 (HGL1) against asexual blood stage Plasmodium falciparum ,using a nano luciferase reporter read-out” (2022).

What is called % Inhibition is the relative decrease from the control value, in per cent.

The whole screen tested about 150,000 compounds, of which about 540 (0.36%) showed an effect of 50% or more. The list shows a part of the results.

The assay relates to Plasmodium falciparum. Nature of the assay: Primary screen in NF54 nanoGlo assay, in single point, at 2uM, 72h; a lower Z score goes with more inhibition. The format is functional, Erythrocyte. As to conditions: timepoint 72 hour.
With `CCc1nc([C@@H]2CCCN2c2ncccc2C#N)no1`, the “% Inhibition” value is recorded as -8% and the Z score stood at 0.94.
Regarding `COCCOc1ccc(-c2nc(-c3oc(C)nc3C)cs2)cn1`, the “% Inhibition” value was -9% and the Z score stood at 1.43.
For `O=C(NCCc1ccc(Cl)s1)N1CCC[C@@H]1CO` the same measures were -6% and 1.06.
For `CC(CO)NC(=O)CC1CCCCO1` (configuration not stated), the “% Inhibition” value is recorded as 0% and the Z score stood at 0.03.
With `O=C(CCc1ccc(F)cc1)NCc1n[nH]c(=O)[nH]1`, the “% Inhibition” value was -19% and the Z score was found to be 2.54.
For `Cc1c(Br)cc(F)cc1C(=O)N(C)CC(C)(CO)CO` the same measures were 2% and -0.26.
For the molecule `CC(=O)NCC(=O)NCc1ccc2c(c1)ncn2C(C)C`, the “% Inhibition” value is given as -10% and the Z score amounted to 0.99.
Regarding `CN(C)c1cccc(NC(=O)NCCN2CCC[C@H](CO)C2)c1`, the “% Inhibition” value is given as -12% and the Z score was 2.26.
The corresponding values for `CCCCc1nc(CN2CC[C@@]3(CCCN(Cc4ccc(F)c(F)c4)C3)C2)c[nH]1` are 1% and -0.22.
Turning to `O=C(CCC(F)(F)F)NCCCC[C@H]1CCCO1`, the “% Inhibition” value is listed as -9% and the Z score turned out to be 0.92.
On to `CN(CCCNC(=O)c1nc(CS(=O)(=O)c2ccc(Cl)cc2)no1)Cc1ccccc1`, for which the “% Inhibition” value amounted to 8% and the Z score is given as -1.46.
With `C#Cc1cc(F)c(NCc2nnc(C)s2)c(F)c1`, the “% Inhibition” value is -5% and the Z score was found to be 0.53.
Regarding `COCCNC(=O)c1ccc(COc2ccc3c(c2)[C@H](c2ccccc2)N(C(=O)C(C)(C)C)CC3)o1`, the “% Inhibition” value is reported as 0% and the Z score is reported as -0.03.
The corresponding values for `O=C1CC[C@H](C(=O)NCc2ccc(-c3ccc4c(c3)CCO4)cc2)N1` are -2% and 0.41.
As for `COCCOCC(=O)N1CC[C@@H]2CN(Cc3ccccc3)[C@@H]2C1`, the “% Inhibition” value came to 5% and the Z score was -0.98.
In the case of `CCC(CC)n1nc(C(=O)N2CC3(CCOCC3)C2)cc1C`, the “% Inhibition” value was found to be 30% and the Z score is -3.37.
In the case of `COCCn1cncc1CN1CCn2nc(CO)cc2C1`, the “% Inhibition” value is 0% and the Z score is recorded as -0.03.
In the case of `Cc1c(C(F)(F)F)nn(C)c1NC(=O)NCc1nccn1CCCc1ccccc1`, the “% Inhibition” value is -8% and the Z score worked out at 1.11.
Regarding `CN(Cc1nccs1)C(=O)NC[C@H]1CCN(Cc2ccccc2F)C1`, the “% Inhibition” value came to 0% and the Z score was -0.05.
Regarding `CCOc1ccc(N2C(=O)C3ON(c4ccccc4)C(c4ccc(OCc5ccccc5)c(OCC)c4)C3C2=O)cc1` (configuration not stated), the “% Inhibition” value amounted to 0% and the Z score is listed as -0.06.
For the molecule `Cn1cc(CCC(=O)N2CCc3ccccc3C2(C)C)cn1`, the “% Inhibition” value is listed as -4% and the Z score is 0.55.
Turning to `CC1CCCc2ncc(C(=O)N[C@@H]3C[C@H]3c3cnn(-c4ccccc4)c3)n21` (some centres not stated), the “% Inhibition” value is listed as -18% and the Z score is on record as 2.
The corresponding values for `CCN(Cc1nc2ccccc2c(=O)[nH]1)C(=O)c1ccc(=O)n(C)n1` are 13% and -1.94.
Consider `COc1cccc(C2C3C(=O)N(c4ccc5ccccc5c4)C(=O)C3ON2c2ccccc2)c1` (configuration not stated), for which the “% Inhibition” value is given as -7% and the Z score was 0.75.
The corresponding values for `O=C(Nc1ccc(Cl)cc1Cl)[C@@H]1CCCN1c1nccc(C(F)(F)F)n1` are 10% and -1.93.
On to `CC(C)[C@H](NS(=O)(=O)C1CC1)c1nccn1C`, for which the “% Inhibition” value turned out to be 0% and the Z score is given as -0.02.
For the molecule `CN1Cc2ccccc2C[C@H]1C(=O)NC1(C(=O)O)CCCC1`, the “% Inhibition” value is reported as -12% and the Z score is 2.36.
For `Cc1nnc(-c2cc(CC(C)C)n(-c3cccc(C(=O)NC[C@H]4COC(C)(C)O4)c3)n2)o1`, the “% Inhibition” value is on record as 6% and the Z score is -0.76.
For `COc1ccc(-n2nc(C)c(CCC(=O)Nc3ccc(F)cc3)c2Oc2cccc(F)c2)cc1` the same measures were 3% and -0.39.
As for `COc1nc(N[C@@H](C)C2=CCCCC2)ncc1F`, the “% Inhibition” value is -14% and the Z score is on record as 1.55.
Take `CNC(=O)NC(=O)C(C)NC(C)c1cccc(OC(C)C)c1` (configuration not stated): the “% Inhibition” value is reported as -8% and the Z score stood at 1.19.
In the case of `CCCN1CCN(S(=O)(=O)c2c(C)[nH]c(-c3nnc(C4CCC4)o3)c2C)CC1`, the “% Inhibition” value was 8% and the Z score is on record as -1.16.
The corresponding values for `O=C(c1cc(-c2ccc3c(c2)OCO3)nc2c1cnn2Cc1ccc(Cl)cc1)N1CCOCC1` are -27% and 3.2.
Consider `COC[C@@]12CN(C(C)=O)CC[C@@H]1CN(C(=O)CCc1ccccc1)C2`, for which the “% Inhibition” value was -14% and the Z score is listed as 1.7.
As for `COCc1noc(-c2ncccc2OC(C)C)n1`, the “% Inhibition” value is listed as -6% and the Z score was 0.85.
`CN(CCO)C(=O)C1(N2CCCCC2)Cc2ccccc2C1`: the “% Inhibition” value is listed as -15% and the Z score worked out at 2.16.
As for `CC(=O)Nc1c(C)nn(-c2ccccc2)c1N1CCC(C(=O)Nc2ccccc2C(F)(F)F)CC1`, the “% Inhibition” value was -6% and the Z score was determined as 1.05.
Consider `O=C1CCC(=O)N1C1CC2CCC(C1)N2C(=O)Cc1ccc2c(c1)OCO2` (configuration not stated), for which the “% Inhibition” value is reported as -13% and the Z score is 1.54.
For `c1cc2c(cc1Cn1cc(-c3cnn(Cc4ccc5c(c4)OCO5)c3)cn1)OCO2` the same measures were -2% and 0.39.
For the molecule `CCc1nc2c(s1)[C@@H](NCC(C)(C)C(N)=O)CCC2`, the “% Inhibition” value was -7% and the Z score came to 0.66.
For `CCCc1noc(Cn2cnc3c4ccccc4n(CC(=O)Nc4ccc(C(C)C)cc4)c3c2=O)n1` the same measures were -2% and 0.23.
